Experimental data published in the supplement of paper PMC11417369.
The list shows a part of the results.

What follows are sequences tested on PfAP2-HC AP2 domain (GST-tagged) (assay: gcPBM binding intensity (ln(normalized median fluorescence intensity)); higher = stronger DNA binding).
In short: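 Using an Agilent 4 × 180k array, primer-extended double-stranded 36-bp intergenic genomic probes and negative controls were exposed for 1 h to GST-fused P. falciparum DNA-binding domains expressed in E. coli. Binding was carried out in 1× PBS with 1% milk, 0.2 mg/ml BSA, 0.5% salmon testes DNA and 0.03% Triton X-100, and protein was detected with Alexa488 anti-GST antibody and a 488 nm scan. Binding intensity is the highest Masliner-normalised natural-log median intensity across replicate spots of either probe orientation.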

Compared with “CTTTTTTTTTAAAAATGTACACATTTTTGAAAATAC [XGTACX_site3127]”, “TTTTTCTTTTTTTTTTCCTTTATCACATAAGAAAAA [CACACA_negctrl_site192]” is lower in “gcPBM binding intensity (ln)” value: 9.51 for the first, 9.36 for the second.

First: AAGATATGAGGGAATACACACATATATATATATATA [CACACA_site1581]
Second: AAAATGAAGAAGTGCACACATATATATATTTATATA [CACACA_site507]
The “gcPBM binding intensity (ln)” value of the first is lower: 9.76 for the first, 9.91 for the second.

Compared with “TTAATACACCATAAAAGTACATAATATGATATTTAA [XGTACX_site8561]”, “ATATGTTTGATTTTTTTTTTTTTTTTTTTTATGTGT [CACACA_negctrl_site1001]” is higher in “gcPBM binding intensity (ln)” value: 9.57 for the first, 9.61 for the second.

Going from “AAAAAAAAAATTAAAAGTACAGAAAATAAATAAATA [XGTACX_site7470]” to “AAAAAAGAAGACATCTAAGTAATAGTAACAATGTAT [CACACA_negctrl_site1660]”, the “gcPBM binding intensity (ln)” value rises from 9.55 to 9.75.

First: GACATATTATTCATGTGTACATATTATATGTATATA [XGTACX_site3442]
Second: AAGAATTTAGAAGGCATGCACTTAAACATGCATATA
The “gcPBM binding intensity (ln)” value of the first is lower: 9.7 for the first, 9.76 for the second.

First: TATAAATATACACCCACACACATATATAAATAAATA [CACACA_site7717]
Second: TTTTTTTTTTTTTTTACACACATTTGAATAACTTTA [CACACA_site6810]
The “gcPBM binding intensity (ln)” value of the first is higher: 10.8 for the first, 9.54 for the second.

First: TATATGGGATATATGTGTACATATAAAATATGTATC [XGTACX_site3365]
Second: CTTAATATGAATAAAACACACATATATAATTTGTAA [CACACA_site5120]
The “gcPBM binding intensity (ln)” value of the first is lower: 9.65 for the first, 9.66 for the second.

Compared with “AAAAGAATTAAAAAATGTACATATAATATATATATA [XGTACX_site6721]”, “TTTTCCCTTACAGAAAAAAAAAAATTCCTAACCCCG [CACACA_negctrl_site650]” is lower in “gcPBM binding intensity (ln)” value: 9.74 for the first, 9.44 for the second.

“ATATATTTTAGGAGAGTGCATTTAATATTATTTAAT [GTGCAC_site9444]” and “TTATATATTTATAATCGTACAATAATTAACGTAAAA [XGTACX_site3206]” are the same in “gcPBM binding intensity (ln)” value: 9.46 for the first, 9.46 for the second.

First: CATATAATAAATAATACACACATATTGTAAATATAT [CACACA_site5734]
Second: GTAATGAACAAACACAAAAAAAAAAAAAAAATAATA [TGCATGCA_negctrl_site344]
The “gcPBM binding intensity (ln)” value of the first is higher: 9.99 for the first, 9.66 for the second.

Compared with AATTGAGTATCGTGAGTGCAAAACGTGGTTCAAAGA, “TAAAATAAAATAAAATGTACTTTCCTTTTGATAATA [XGTACX_site6288]” is lower in “gcPBM binding intensity (ln)” value: 9.74 for the first, 9.36 for the second.

First: TATATTAAAAAAAAATGTACACATATATATATATAT [XGTACX_site4524]
Second: TATATGTTTGAATATACACACAACATATATATATAT [CACACA_site4066]
The “gcPBM binding intensity (ln)” value of the first is lower: 9.7 for the first, 9.81 for the second.

First: ATATTATTAATTTGTTGTACAGTTCTTTATTTATAG [XGTACX_site7932]
Second: CCAGGAAAAATTTATTGTACATATATTTTTATGCTC [XGTACX_site7154]
The “gcPBM binding intensity (ln)” value of the first is higher: 9.69 for the first, 9.53 for the second.

Going from TATTTTTGGTTATGTGTGCACTATGAACAACAAAAT to “TATATCTCTTTATTCACACATACGTTTTAAAATAAT [CACACA_site5542]”, the “gcPBM binding intensity (ln)” value falls from 9.73 to 9.71.

Compared with “TAATAAAACATATATACACACATTAGATATACATAT [CACACA_site6897]”, “TTCCCAACATGATATTGTACATTTAATTATAATTAA [XGTACX_site7029]” is lower in “gcPBM binding intensity (ln)” value: 9.91 for the first, 9.69 for the second.

Compared with “TATAAATAAAGACACACACACACACCGTATAATTAC [CACACA_site7829]”, “GTGCATAAATCATACACACACACATATATATATATA [CACACA_site2423]” is lower in “gcPBM binding intensity (ln)” value: 10.9 for the first, 10.3 for the second.

Compared with “ATAAAAATAAAAAAAACACACATACCTTATTTTTGT [CACACA_site5452]”, “GAAAGAAAATATTAAGTGCATATTTTAATGATACAA [GTGCAC_site9712]” is lower in “gcPBM binding intensity (ln)” value: 10.1 for the first, 9.77 for the second.

First: ATTTTCCATATATTTTGTACATATGTATATTTTCCC [XGTACX_site7795]
Second: AAATATAAATGGTAATACACATACACACACACATAC [XGTACX_negctrl_site459]
The “gcPBM binding intensity (ln)” value of the first is lower: 9.83 for the first, 10.5 for the second.

Compared with “AATCAAAATAAATTAACACACAATTTTAATATTGTT [CACACA_site10]”, “TATAAAAAATTATGTTGTACGTAATATAAAATTTGT [XGTACX_site7122]” is lower in “gcPBM binding intensity (ln)” value: 9.63 for the first, 9.62 for the second.

Going from “TATTTTTAACAGTGCACACATAACTTAATTATATGT [CACACA_site2194]” to “AGATATTTTTCTTAAGTACACACTAATTAGAAACTA [CACACA_site7897]”, the “gcPBM binding intensity (ln)” value falls from 9.93 to 9.52.

Going from “TTTTTATTTTAAAAGAATAATTATCTAATATCTATA [CACACA_negctrl_site371]” to “TCGAACGTATCATGTGTACACACAAATTGTTTTTTT [CACACA_site8623]”, the “gcPBM binding intensity (ln)” value rises from 9.46 to 10.

Compared with GTATAAAAGTAACTAGTGCATTACATATGAATAAAA, “CCTTGCCCCAGGAGTTCACACACATAATAGATTGTC [CACACA_site8138]” is higher in “gcPBM binding intensity (ln)” value: 9.84 for the first, 9.98 for the second.

Compared with “AAAAGAAGAAACAAAACACACACAGTCTTCTTTTCT [CACACA_site9015]”, “TTTATGAGGTTACTATGTACGCAAATTATGTAATAA [XGTACX_site325]” is lower in “gcPBM binding intensity (ln)” value: 10.2 for the first, 9.44 for the second.

Going from “ATTTGTGTTATTCGAAGTACGGATCATTTGAAATAA [XGTACX_site2510]” to “TCAAATTATTAAAATACACACATATTATATATATAT [CACACA_site2530]”, the “gcPBM binding intensity (ln)” value rises from 9.49 to 9.82.

First: AGCAATTTGGGGTGTACACACACCTTATTTAAATTA [CACACA_site1157]
Second: TTACCTCTTTGAAATATACACACTAAACATATCAAC [CACACA_site2455]
The “gcPBM binding intensity (ln)” value of the first is higher: 9.79 for the first, 9.68 for the second.

Going from “GACACCTGCATGAAAGTGCAAAATAGAAAAGGAACA [GTGCAC_site9593]” to “AAATACCTTATATATACACACTATGTTTTTCTTTTT [CACACA_site4792]”, the “gcPBM binding intensity (ln)” value rises from 9.65 to 9.97.

First: AACACGCACAGACACACACACAAAAATGATTAAAAA [CACACA_site7195]
Second: AAGGAATAATAATAAATGTAAAGAAAAGCATACTGA [CACACA_negctrl_site36]
The “gcPBM binding intensity (ln)” value of the first is higher: 10.3 for the first, 9.76 for the second.

Going from “TGTGAAAATTATGGGGCATGCAATACTTTAAAAATA [TGCATGCA_site653]” to “CAAATGTAGAAAATGTGTACATAAAAAAAAAAAAAA [XGTACX_site8276]”, the “gcPBM binding intensity (ln)” value rises from 9.68 to 9.7.

In the case of “AGTCAATTTTGTGTGTCAACATTTATATAAAGAATG [TGCATGCA_negctrl_site400]”, the “gcPBM binding intensity (ln)” value is reported as 9.71.
